Some of the results follow. The list includes weakly bound sequences.
Molecular target: T1, MBP-FoxP3dN (UniProt Q99JB6)
T1 sequence: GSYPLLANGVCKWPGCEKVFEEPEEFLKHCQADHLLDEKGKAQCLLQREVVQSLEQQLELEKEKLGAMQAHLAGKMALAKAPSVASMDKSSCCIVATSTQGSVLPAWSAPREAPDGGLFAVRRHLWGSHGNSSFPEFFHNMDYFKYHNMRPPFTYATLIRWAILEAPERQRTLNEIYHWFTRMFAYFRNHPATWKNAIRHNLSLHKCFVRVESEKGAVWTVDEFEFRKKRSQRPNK
Assay: PD-seq (MBP pull-down with sequencing)
Details: 20 mM Tris-HCl pH 7.5, 100 mM NaCl, 1.5 mM MgCl2, 0.4 uM protein, 0.1 uM dsDNA library, 30 min, room temperature, amylose pull-down; high values mean tight binding; double strand, one strand shown

Sequence	binding signal (RPM ratio (pull-down/input))
GATGATTGTTCTCCCAGCTGATGAATTGGAGTGTTCGAGTAAACAAATTTTCCTAATCTTTCTGTTCAAGCGCCATCTAC	0.671
GATGATTGTTCTCCCAGCTGATGAATTTTGCAAATCGAGTAAACAAATTTTCCTAATCTTTCTGTTCAAGCGCCATCTAC	0.874
GATGATTGTTCTCCCAGCTGATGAATTACGTCGGTCGAGTAAACAAATTTTCCTAATCTTTCTGTTCAAGCGCCATCTAC	0.369
GATGATTGTTCTCCCAGCTGATGAATTGTCCCGTTCGAGTAAACAAATTTTCCTAATCTTTCTGTTCAAGCGCCATCTAC	0.367
GATGATTGTTCTCCCAGCTGATGAATTTGTTTTATCGAGTAAACAAATTTTCCTAATCTTTCTGTTCAAGCGCCATCTAC	6.46
GATGATTGTTCTCCCAGCTGATGAATTACTTAAGTCGAGTAAACAAATTTTCCTAATCTTTCTGTTCAAGCGCCATCTAC	0.246
GATGATTGTTCTCCCAGCTGATGAATTTTCGCCGTCGAGTAAACAAATTTTCCTAATCTTTCTGTTCAAGCGCCATCTAC	0.57
GATGATTGTTCTCCCAGCTGATGAATTGGCAACATCGAGTAAACAAATTTTCCTAATCTTTCTGTTCAAGCGCCATCTAC	2.38
GATGATTGTTCTCCCAGCTGATGAATTGGATAAATCGAGTAAACAAATTTTCCTAATCTTTCTGTTCAAGCGCCATCTAC	0.23
GATGATTGTTCTCCCAGCTGATGAATTTCTAAAGTCGAGTAAACAAATTTTCCTAATCTTTCTGTTCAAGCGCCATCTAC	0.185
GATGATTGTTCTCCCAGCTGATGAATTGGAACGATCGAGTAAACAAATTTTCCTAATCTTTCTGTTCAAGCGCCATCTAC	0.24
GATGATTGTTCTCCCAGCTGATGAATTCTAGTTTTCGAGTAAACAAATTTTCCTAATCTTTCTGTTCAAGCGCCATCTAC	0.554
GATGATTGTTCTCCCAGCTGATGAATTTCTGACGTCGAGTAAACAAATTTTCCTAATCTTTCTGTTCAAGCGCCATCTAC	0.261
GATGATTGTTCTCCCAGCTGATGAATTGGGTCAATCGAGTAAACAAATTTTCCTAATCTTTCTGTTCAAGCGCCATCTAC	0.294
GATGATTGTTCTCCCAGCTGATGAATTGTGTGTCTCGAGTAAACAAATTTTCCTAATCTTTCTGTTCAAGCGCCATCTAC	3.93
GATGATTGTTCTCCCAGCTGATGAATTATGTTTATCGAGTAAACAAATTTTCCTAATCTTTCTGTTCAAGCGCCATCTAC	8.36
GATGATTGTTCTCCCAGCTGATGAATTGAGTGGTTCGAGTAAACAAATTTTCCTAATCTTTCTGTTCAAGCGCCATCTAC	1.05
GATGATTGTTCTCCCAGCTGATGAATTCTAGTCATCGAGTAAACAAATTTTCCTAATCTTTCTGTTCAAGCGCCATCTAC	0.443
GATGATTGTTCTCCCAGCTGATGAATTTGAAATGTCGAGTAAACAAATTTTCCTAATCTTTCTGTTCAAGCGCCATCTAC	0.369
GATGATTGTTCTCCCAGCTGATGAATTGATCCCGTCGAGTAAACAAATTTTCCTAATCTTTCTGTTCAAGCGCCATCTAC	0.234

Sequence	binding signal (RPM ratio (pull-down/input))
GATGATTGTTCTCCCAGCTGATGAATTAGGAAATTCGAGTAAACAAATTTTCCTAATCTTTCTGTTCAAGCGCCATCTAC	0.517
GATGATTGTTCTCCCAGCTGATGAATTAATAAAATCGAGTAAACAAATTTTCCTAATCTTTCTGTTCAAGCGCCATCTAC	0.221
GATGATTGTTCTCCCAGCTGATGAATTCATTATCTCGAGTAAACAAATTTTCCTAATCTTTCTGTTCAAGCGCCATCTAC	1.12
GATGATTGTTCTCCCAGCTGATGAATTCAGGGTGTCGAGTAAACAAATTTTCCTAATCTTTCTGTTCAAGCGCCATCTAC	0.785
GATGATTGTTCTCCCAGCTGATGAATTGGGGTAGTCGAGTAAACAAATTTTCCTAATCTTTCTGTTCAAGCGCCATCTAC	0.459
GATGATTGTTCTCCCAGCTGATGAATTACTGTTGTCGAGTAAACAAATTTTCCTAATCTTTCTGTTCAAGCGCCATCTAC	1.49
GATGATTGTTCTCCCAGCTGATGAATTAGCCGCTTCGAGTAAACAAATTTTCCTAATCTTTCTGTTCAAGCGCCATCTAC	0.45
GATGATTGTTCTCCCAGCTGATGAATTGTTGTATTCGAGTAAACAAATTTTCCTAATCTTTCTGTTCAAGCGCCATCTAC	4.65
GATGATTGTTCTCCCAGCTGATGAATTTGTTGAATCGAGTAAACAAATTTTCCTAATCTTTCTGTTCAAGCGCCATCTAC	3.07
GATGATTGTTCTCCCAGCTGATGAATTTCCGCCATCGAGTAAACAAATTTTCCTAATCTTTCTGTTCAAGCGCCATCTAC	2.59
GATGATTGTTCTCCCAGCTGATGAATTTGCGTTATCGAGTAAACAAATTTTCCTAATCTTTCTGTTCAAGCGCCATCTAC	2.89
GATGATTGTTCTCCCAGCTGATGAATTTGTCTCTTCGAGTAAACAAATTTTCCTAATCTTTCTGTTCAAGCGCCATCTAC	3.21
GATGATTGTTCTCCCAGCTGATGAATTGCGTTACTCGAGTAAACAAATTTTCCTAATCTTTCTGTTCAAGCGCCATCTAC	1.77
GATGATTGTTCTCCCAGCTGATGAATTGTCAGGCTCGAGTAAACAAATTTTCCTAATCTTTCTGTTCAAGCGCCATCTAC	0.295
GATGATTGTTCTCCCAGCTGATGAATTACTATAATCGAGTAAACAAATTTTCCTAATCTTTCTGTTCAAGCGCCATCTAC	0.397
GATGATTGTTCTCCCAGCTGATGAATTGACGTTATCGAGTAAACAAATTTTCCTAATCTTTCTGTTCAAGCGCCATCTAC	0.79
GATGATTGTTCTCCCAGCTGATGAATTACCTACTTCGAGTAAACAAATTTTCCTAATCTTTCTGTTCAAGCGCCATCTAC	0.328
GATGATTGTTCTCCCAGCTGATGAATTGTGCTCATCGAGTAAACAAATTTTCCTAATCTTTCTGTTCAAGCGCCATCTAC	0.776
GATGATTGTTCTCCCAGCTGATGAATTTTGGAGATCGAGTAAACAAATTTTCCTAATCTTTCTGTTCAAGCGCCATCTAC	0.228
GATGATTGTTCTCCCAGCTGATGAATTAGCGTGCTCGAGTAAACAAATTTTCCTAATCTTTCTGTTCAAGCGCCATCTAC	1.23

Source: PMC12820563
